The whole screen tested about 45,000 compounds, of which about 200 (0.44%) were called active. Roughly 7% stayed inconclusive and do not appear here. The call rests on the fitted dose curve; in most records, active means well fitted activation curve with a large enough effect; inconclusive means small, poorly fitted or top-dose-only effect; inactive means no such curve, though single readings can be large or run the other way. The list shows a part of the results.
Assay: qHTS of TDP-43 Inhibitors: NCGC Sytravon Library Screen; further: 0% is about no effect; nearly all actives have a fitted effect of over 55% in size
Settings: yeast TDP-43 toxicity rescue, BacTiter-Glo growth, 24 h; series mostly up to 46.1 µM; growth rescue (activation): at the top concentration
Procedure, shortened: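 TDP-43-expressing yeast, pregrown in raffinose, seeded at OD600 0.02 in galactose medium with compound for 24 hr at 30 deg C. Growth read by BacTiter-Glo luminescence, so rescue of toxicity appears as activation.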

Structure (SMILES) | growth rescue (activation)
NS(=O)(=O)c1ccc(CCNC(=O)c2cnc(Cl)c(Cl)c2)cc1 | inactive: -2.08%
CCOc1ccc(OCCCCN(C)C)cc1 | inactive: -4.9%
Cc1ccc(C)c(OCC(=O)Nc2ccccc2C(=O)N2CCN(C)CC2)c1 | inactive: -12.1%
CC(=O)c1cccc(NC(=O)CCNC(=O)c2ccccc2Cl)c1 | inactive: -7.57%
O=C1NC(=Nc2ccc(Cl)cc2)SC1Cc1cccc(Cl)c1Cl (stereo not drawn) | inactive: -6.83%
Cn1nccc1C(=O)NC1CC(C)(C)Cc2c1cnn2-c1ccc(F)cc1 (stereo not drawn) | inactive: 19%
COc1ccc(/C=C2\CCn3c2nc2cc(C(=O)O)ccc2c3=O)cc1OC | inactive: -3.59%
Fc1ccccc1COc1ccc2ccccc2c1CNc1nn[nH]n1 | inactive: 16.5%
CCOc1nc(-c2ccccc2)ccc1-c1noc(-c2cccnc2)n1 | inactive: -22.7%
O=C(NCCCn1ccnc1)C1CC(c2ccccc2Cl)=NO1 (stereo not drawn) | inactive: 22.9%
CCn1c(C)nnc1SCC(=O)NC1CCCC1 | inactive: -6.38%
O=C(OCC(=O)N1CCCCC1)c1cc(NS(=O)(=O)c2ccc(Cl)c([N+](=O)[O-])c2)ccc1O | inactive: 4.13%
C(=N\Nc1nc(Nc2ccccc2)nc(Nc2ccccc2)n1)/c1ccncc1 | inactive: 2.28%
CCN(CC)C(=O)Oc1c(Cl)cc(Cl)c2cccnc12 | inactive: 5.89%
Cc1cc(-c2nnc(CCC(=O)NCCc3ccccc3F)o2)no1 | inactive: -20.9%
COc1ccc(-n2c(=S)[nH]c3cc(C(=O)NCc4cccnc4)ccc3c2=O)c(OC)c1 | inactive: -0.693%
CCc1cc(C(=O)Cc2nc3ccccc3s2)c(O)cc1OCC(=O)O | inactive: 17%
Cc1c(Nc2nc(-c3cccc([N+](=O)[O-])c3)cs2)c(=O)n(-c2ccccc2)n1C | inactive: 14.9%
CCCn1c(=O)c(C(=O)N/N=C/c2ccc(F)cc2)c(O)c2ccccc21 | inactive: -19.3%
Cn1cc(CN2CCC(C(=O)NC(c3ccc(-c4ccccc4)cc3)c3cnccn3)CC2)c2ccccc21 (stereo not drawn) | inactive: -6.74%
COc1ccc(NC(=S)NC2CC3CCCC(C2)N3C2CC2)cc1 (stereo not drawn) | inactive: 7.66%
COc1ccc(NC(=O)Nc2c(C)n(-c3ccccc3)c(=O)n2C)cc1OC | inactive: 9.15%
CC(C)O/N=C1\C(=O)N(c2ccccc2)c2ccccc21 | inactive: 31.3%

Structure (SMILES) | growth rescue (activation)
CCCCCOc1ccc(C(=O)Nc2ccc(S(=O)(=O)Nc3cc(C)on3)cc2)cc1 | inactive: 1.99%
C=CCn1c(SCC(=O)Nc2cc(C)on2)nnc1C1COc2ccccc2O1 (stereo not drawn) | inactive: -2.01%
O=C(CCc1nnc(-c2ccsc2)o1)N1CCCCC1CCn1ccnc1 (stereo not drawn) | inactive: -4.04%
CC(c1ccco1)N(C(=O)c1ccccc1NS(=O)(=O)c1ccc(Cl)cc1)c1ccccn1 (stereo not drawn) | inactive: 25.1%
COc1cc2c(cc1OC)C(c1cccc(F)c1)CC(=O)N2 (stereo not drawn) | inactive: 0.296%
Cc1cc(C)cc(NC(=O)CNS(=O)(=O)c2ccc3nc(C)sc3c2)c1 | inactive: 1.19%
O=C(NC(N1CCCCCC1)C(Cl)(Cl)Cl)c1ccccc1Cl (stereo not drawn) | inactive: 2.05%
Nc1cccc(-c2cccc3nncn23)c1 | inactive: 9.54%
O=C(COC(=O)[C@@H]1CC(O)CN1S(=O)(=O)c1ccc2c(c1)OCCO2)NCc1ccc(F)cc1 (stereo partly drawn) | inactive: 8.37%
Cc1ccc2cc(NC(=O)C3(C)CCN3C(C)C)ccc2n1 (stereo not drawn) | inactive: 11.3%
Cc1ccccc1C(=O)Nc1ccccc1C(=O)N1CCC(C)CC1 | inactive: 14.2%
COC1=C/C(=C/c2c(N)n3nc(-c4ccc(C)cc4)sc3nc2=O)C=CC1=O | inactive: -8.15%
Cn1c(SCC(=O)N2CCCC2=O)nc2ccccc21 | inactive: 5.27%
Cc1nn(-c2ccccc2Cl)c(Cl)c1/C=N/Nc1nc2ccccc2s1 | inactive: -22.6%
CCOc1ccc(S(=O)(=O)N(CC)CC(=O)N2CCOCC2)cc1C | inactive: 16%
CC(Nc1nc(-c2ccccc2F)nc2ccccc12)c1ccccc1 (stereo not drawn) | inactive: -9.18%
COc1ccc(/C=C(\C#N)C(=O)OCC(=O)NCc2ccccc2)cc1 | inactive: 11.5%
Cc1ccc(S(=O)(=O)N(CC2CO2)c2ccccc2[N+](=O)[O-])cc1 (stereo not drawn) | inactive: 4.06%
CCOc1ccccc1N(CC(=O)N1CCCCCC1)S(=O)(=O)c1ccc(C)cc1 | inactive: 19.9%
Cc1nnc(SCCOc2ccccc2)s1 | inactive: 3.86%
COc1ccc(CN2CCN(CCCCOc3ccc(Cl)cc3)CC2)c(OC)c1OC | inactive: -9.16%
COc1ccc(CNS(=O)(=O)NCc2ccc(C)cc2)cc1 | inactive: -7.7%
O=C(CSc1nncc2ccccc12)Nc1ccccc1 | inactive: 3.84%

Structure (SMILES) | growth rescue (activation)
Cc1c(C)n(Cc2ccccc2)c2ccc(C(=O)OCCN(C)C)cc12 | inactive: -2.02%
COc1cc(/C=N/NC(=O)C(=O)NCc2cccnc2)cc(OC)c1OC | inactive: 8.92%
CSc1ccc(CCNC(=O)C(C)n2nc(C)c3sc4ccccc4c3c2=O)cc1 (stereo not drawn) | inactive: 7.09%
COc1ccc(/C=N/NC(=O)CC(=O)N/N=C/c2ccc(OC)cc2)cc1 | inactive: -9.85%
O=C(Nc1ccc(Cl)c(Cl)c1)Nc1ccc(N2CCCC2)c(S(=O)(=O)Nc2ccccc2Cl)c1 | inactive: 15.5%
OC(COc1ccc2ccccc2c1Br)Cn1ccnc1 (stereo not drawn) | inactive: -13.1%
O=C1N/C(=N\N=C\c2cccs2)SC1Cc1ccc(Cl)cc1 (stereo not drawn) | inactive: -22%
O=C(COc1ccccc1[N+](=O)[O-])Nc1cc(Cl)ccc1C(=O)O | inactive: 3.02%
Cc1ccc(C(=O)OCc2c(C)noc2C)cc1NC(=O)c1ccco1 | inactive: 9.08%
Nc1c(-c2ccccc2)c(CSc2nc3ccccc3[nH]2)nn1-c1cccc(C(=O)O)c1 | inactive: 3.16%
Cc1cc(C)c(S(=O)(=O)Nc2ccc(N3CCOCC3)cc2)c(C)c1 | inactive: 14.1%
CCOc1ccc(S(=O)(=O)N2CCC(C(=O)NCc3ccncc3)CC2)cc1 | inactive: 11.2%
CN(c1ccc(C(=O)N2CCOCC2)cc1)S(=O)(=O)c1cccs1 | inactive: 2.6%
O=C(O)c1ccccc1C(=O)NCCc1ccc(Cl)cc1 | inactive: 4.7%
Cc1ccc(NC(=S)NCc2ccccc2)cc1S(=O)(=O)N1CCCCC1 | inactive: 0.881%
O=C(CSc1n[nH]c(-c2ccco2)n1)Nc1ccc(Br)cc1 | inactive: 1.69%
O=C(C[n+]1ccc(C(=O)N/N=C/c2ccc(O)cc2)cc1)c1ccccc1 | inactive: 14.1%
CN1C(=O)/C(=C\c2ccc(N(C)C)cc2)OC1=S | inactive: 1.54%
Cc1ccc(S(=O)(=O)NCC(C)n2nc(C)cc2C)cc1 (stereo not drawn) | inactive: 11.7%
Cc1ccc(S(=O)(=O)N2CCOCC2)cc1NC(=O)COC(=O)CNC(=O)c1ccc(Oc2ccccc2)cc1 | inactive: 10.6%
CCOC(=O)C1(Cc2cccc(OC)c2)CCN(Cc2cccc(OCC)c2O)CC1 | inactive: 3.76%
CC(=O)c1cccc(NC(=O)Cn2c(=O)oc3cc(S(=O)(=O)N4CCCC4)ccc32)c1 | inactive: 10.3%

Source: PubChem BioAssay AID1347073 (National Center for Advancing Translational Sciences (NCATS), 2019)
